In all, about 190,000 compounds went through this assay and about 400 (0.21%) were called active. The shares of active, inactive and inconclusive entries below differ from those in the screen.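 The calls were made as follows: active = percent activity GTP binding at least 20 points away from the 100% baseline, either down as inhibitor or up as activator; inconclusive = compound flagged as likely green fluorescent from well-wide comparison; inactive = the rest.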
target: Cell division control protein 42 homolog (Homo sapiens) (UniProt P60953); test: wildtype Cdc42 fluorescent GTP binding changes, either direction – biochemical, multiplex bead flow cytometry, Bodipy-GTP, primary screen (AID 761); conditions: GST-Cdc42 beads, at 10 µM, actives lie on both sides;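 also: median bead fluorescence of bound Bodipy-FL-GTP at 100 nM; 0% = excess unlabeled GTP control and 100% = no compound control; below 100% means less GTP binding so inhibitor and above means activator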
Sequence of UniProt P60953 (P60953 whole entry, looked up): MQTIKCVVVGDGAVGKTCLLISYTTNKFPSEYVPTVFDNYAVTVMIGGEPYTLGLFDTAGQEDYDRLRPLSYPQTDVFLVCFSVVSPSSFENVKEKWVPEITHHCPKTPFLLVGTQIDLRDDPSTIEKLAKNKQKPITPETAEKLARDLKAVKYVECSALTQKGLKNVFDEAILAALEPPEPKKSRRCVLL

SMILES | percent activity (GTP binding)
COCCN(C(=S)Nc1cc(C)cc(C)c1)C(C)c1ccco1 (stereo not given) | inactive: 99%
CC(C)n1cc(/C=C(\C#N)S(=O)(=O)c2ccccc2)c2ccccc21 | inconclusive: 104%
Cc1cc(C)n2nc(SCN3C(=O)c4ccccc4C3=O)nc2n1 | inconclusive: 107%
Cn1c(=O)n(Cc2ccccc2F)c(=O)c2c1nc1n2CCCN1CCc1ccccc1 | inconclusive: 95%
CCc1ccccc1NC(=S)N(CCN(C)C)Cc1cccs1 | inactive: 97%
Cc1nn(CCc2nn[nH]n2)c2nc(-c3ccc(C4CCCCC4)cc3)cc(C(F)(F)F)c12 | active: 77%
NC(=S)N/N=C/c1ccc(-c2cc(Cl)cc(Cl)c2)o1 | inconclusive: 84%
C1COCCNCCOCCOCCOCCN1 | inactive: 101%
CC(=O)c1sc(N/N=C/c2cccc(O)c2)nc1C | inconclusive: 86%
CC(c1nnnn1C(C)(C)C)N(Cc1cccnc1)Cc1ccccc1Cl (stereo not given) | inconclusive: 94%
CC(OC(=O)c1cc2c(ccc3ccccc32)oc1=O)c1nc2ccccc2s1 (stereo not given) | inconclusive: 83%
CC(=O)N1CCN=C1SCc1ccc(Br)cc1 | inconclusive: 107%
Fc1ccc(-c2ccnc(=S)[nH]2)cc1 | inactive: 100%
C=CCn1c(C)cc(C(=O)CN2C(=O)c3ccccc3C2=O)c1C | inconclusive: 107%
Cc1ccc(COC(=O)c2ccc3c(c2)C(=O)N(CCCN2CCOCC2)C3=O)cc1 | inconclusive: 89%
COc1ccc2nc(C)cc(SCC(=O)N/N=C/c3ccc(O)cc3O)c2c1 | inconclusive: 89%
Cn1c(-c2ccccc2)cnc1N | inconclusive: 106%
CCCC1=C(C(=O)OCC)C(c2cccs2)C(C#N)=C(N)O1 (stereo not given) | inconclusive: 97%
O=C(O)CCSc1nc2ccccc2s1 | inactive: 99%
Nc1nc(N)c2sc3nc4c(cc3c2n1)CCC4 | inconclusive: 80%

SMILES | percent activity (GTP binding)
C=CCn1c(=O)n2ncnc2c2c3c(sc21)CCCC3 | inconclusive: 88%
O=C(CSc1nc(-c2ccccc2)nc2c1Cc1ccccc1O2)Nc1ccc(C(=O)O)cc1 | inconclusive: 92%
Cc1nc2ccccc2c(=O)n1CCN1CCOCC1 | inconclusive: 106%
CC(C)NC(=O)C(OC(=O)c1ccccc1)C(OC(=O)c1ccccc1)C(=O)O (stereo not given) | inconclusive: 108%
COc1c(C)cc(Br)cc1C(=O)Nc1cccc(-c2nc3ncccc3o2)c1 | inconclusive: 85%
C#CCN1C(=O)C(O)(CC(=O)c2cc(OC)ccc2OC)c2ccccc21 (stereo not given) | inconclusive: 108%
CCCCn1nnc(NC(=O)c2ccc(-c3cccc([N+](=O)[O-])c3)o2)n1 | inconclusive: 91%
COC(=O)c1ccc(CSc2nnc(NC(=O)C3CC(=O)N(c4ccc5c(c4)OCCO5)C3)s2)cc1 (stereo not given) | inactive: 105%
O=[N+]([O-])c1ccc(S(=O)(=O)NCCN2CCOCC2)cc1 | inconclusive: 101%
Cc1cc(C(=O)NNC(=O)CCCCC(=O)NNC(=O)c2cc(C)[nH]n2)n[nH]1 | inconclusive: 102%
COC(=O)c1cc(OC)c(OC)cc1NC(=O)c1ccc(C)o1 | inconclusive: 82%
CC1CN(C(=O)Cc2ccc(-c3ccccc3)cc2)CC(C)O1 (stereo not given) | inactive: 97%
O=C(CN1C(=O)CCC1=O)NCC12CC3CC(CC(C3)C1)C2 | inconclusive: 90%
COc1c(C(=O)Nc2c(C)n(C)n(-c3ccccc3)c2=O)ccc2ccccc12 | inconclusive: 108%
CSCC[C@H](NC(=O)Nc1ccc(C)cc1C)C(=O)O | inconclusive: 102%
Cc1ccc(CN2C(=O)CCC2C(=O)NC(C)C)cc1 (stereo not given) | inconclusive: 102%
CCCCCn1nc(C(=O)OCC(=O)c2c(N)n(C)c(=O)n(C)c2=O)c2ccccc2c1=O | inconclusive: 80%
O=C(CCN1C(=O)COc2ccccc21)NCc1cccs1 | inconclusive: 94%
COc1cc(S(=O)(=O)Nc2ncccc2C)c(OC)cc1Cl | inconclusive: 107%
CCC(=O)NC(=S)Nc1cccc(NC(=O)c2ccco2)c1 | inconclusive: 95%

SMILES | percent activity (GTP binding)
O=C(CN1CCN(c2ccc(F)cc2)CC1)Nc1cccc(C(F)(F)F)c1 | inconclusive: 98%
COc1ccc(CN2C(=O)NC3(CCCC3)C2=O)cc1F | inconclusive: 96%
CCN(CC)S(=O)(=O)c1ccc(NC(=S)NC(=O)CC(C)C)cc1 | inconclusive: 96%
CCCN1C(=O)/C(=C/c2ccc(C)o2)SC1=Nc1ccc(OCC)cc1 | inconclusive: 107%
CCCCC1(CC)C(=O)NC(=O)NC1=Nc1ccc(OC)cc1 (stereo not given) | inconclusive: 108%
CCOC(=O)c1sc(N)c(C(N)=O)c1C | inconclusive: 90%
O=C(Nc1ccc([N+](=O)[O-])cc1Br)c1cccnc1 | inconclusive: 99%
CCCc1cc(NCC2CCCO2)n2c(nc3ccccc32)c1C#N (stereo not given) | inactive: 95%
CCCn1c(SCC(=O)N2CCCC(C)C2)nnc1-c1ccccn1 (stereo not given) | inactive: 93%
COc1ccc(OC)c2c(N3CCN(C)CC3)cc(C(F)(F)F)nc12 | inconclusive: 104%
CC(C)(C)OC(=O)NCCCC[C@H](NC(=O)c1nc[nH]c1C(=O)N1CCN(C(=O)OC(C)(C)C)CC1)C(=O)OC(C)(C)C | inconclusive: 93%
CC(C(=O)Nc1cccnc1)C1Sc2ccccc2NC1=O (stereo not given) | inactive: 94%
CCc1ccccc1NC(=O)c1onc(C)c1Cl | inconclusive: 105%
C/C(=C\C(=O)c1ccc(Cl)cc1Cl)N(C)C | inactive: 98%
c1cncc(CN=C2Nc3ccccc3CS2)c1 | inconclusive: 93%
CC(C)CCn1c(CN2CCN(Cc3ccccc3)CC2)nc2c1c(=O)n(C)c(=O)n2C | active: 156% [activator]
CCOc1ccc(NC(=O)CSc2nc3cccnc3n2CCOC)cc1 | inconclusive: 108%
Cc1cc(C(=O)O)ccc1-c1ccc(/C=C2\NC(=O)N(Cc3ccccc3Cl)C2=O)o1 | inconclusive: 83%
COc1ccc(CCNC(=O)c2ccccc2Cl)cc1OC | inconclusive: 98%
Cc1ccc(S(=O)(=O)N(C)CC(=O)OCC(=O)c2c(N)n(C)c(=O)n(C)c2=O)cc1 | inactive: 99%

— PubChem BioAssay AID761 (NMMLSC, 2007)
